Test results as given in publication PMC9032790.

Test system: antibody of the 5C3-cell clone
Assay: heterologous ic-ELISA hybridoma screening, 5C3 clone
Settings: free clothianidin 50 μg/L

For `CN/C(=N\[N+](=O)[O-])NCc1cnc(Cl)s1` [clothianidin], the “inhibition of antibody binding to IMI-H-OVA” value (IMI-H-OVA 5 μg/mL) was 51.9% and the “inhibition of antibody binding to THC-H-OVA” value (THC-H-OVA 5 μg/mL) was 53.72%.
